Measured values taken from the RNAGym collection of RNA variant scans (doi:10.1093/nar/gkz1192).
Read counts are not given, so values of variants with three or more changes are uncertain.

B1: CPEB3 Ribozyme (parent)
chain: UAACAGGGGGCCACAGCAGAAGCGUUCACGUCGCAGCCCCUGUCAGAUUCUGGUGAAUCUGCGAAUUCUGCUGUAUAUCUC

Variants of: B1
Assay: self-cleavage, relative activity (ratio to wild type); higher = more cleavage; in vitro, sequencing
How it was run: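 CPEB3 self-cleaving ribozyme mutant libraries were made by rounds of error-prone PCR, barcoded, and transcribed in vitro with T7 RNA polymerase for 5 hours at 37°C. Cleavage occurred during transcription and a 15 min DNase I step before EDTA stop. RNAs were reverse transcribed with template switching and Illumina-sequenced, with DNA sequencing mapping barcodes to variants. Relative activity is the variant's cleaved/total read fraction divided by wild type's (minimum 5 reads), averaged across three batches.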

Variant | self-cleavage
U25C A47G U48A A56G | 0.15
U25A A28G U41G | 0.39
G24A C38U A65G U69C | 0.1
U25A G53U A56G U69A | 0.25
U25C A28G U49C G55C U69C A75U | 0.02
U25A U49C U60A | 0.06
U25A U54G G70A U80C | 0.16
U25C A28G C29U A57G U76C U80C | 0.14
U25A C32G A45U A65G | 0.05
U25A G63U U69G | 0.16
U25C A56G U74C | 0.07
U25C A28U A45G A56G | 0.2
G24A U26A C27U U51A A57G A75U | 0.07
U25C A45U U51C U69A | 0.12
U25C A64U A75U | 0.3
U25A A56G U78C | 0.06
G24A G33U A64G U69A | 0.12
G24C C37U U67C U72A | 0.11
U25A U26C U58C A75U | 0.12
U25A U51A A57G A75C U76C | 0.23
U25A U49C A56G | 0.22
U25C A35U U41A A65G U78A | 0.04
U25A A56G U74C A75U U80G | 0.16
U25A U41A U58C | 0.15

Variant | self-cleavage
G24U U31C U51G U78C | 0.16
G24U U41A A56U U80C C81A | 0.07
U25A A28G C38U A56U U67A | 0.12
G24A U51A A64G U67C U78C | 0.12
U25C A28C U67C C79G | 0.06
U25C A45C A56G | 0.16
U25A A28G U49G U54A A56C A64C U78C | 0.07
U25C A35G U58C | 0.11
G24C C37U U41A U54C | 0.14
U25C A45U U60C | 0.39
U25A U51C U66C | 0.19
U25C A35U U72C | 0.07
U25A U26C U31C C32G U72C | 0.06
G24A U49C A64G | 0.13
U25A G33C U54C A64G U74C U80C | 0.1
U25C A35U A47G U54C U58A U66C A75U | 0.12
U25A U58C U66C | 0.12
U25A A56U U58A U69C U72A A77G | 0.05
G24A U41C U66C U72G | 0.09
U25C A57G A77U | 0.41
U25A G61A U74C A75G | 0.39
G24A U49C U54C A64G U66A | 0.22
U25C A28G U31C U41C C62U U74G A77G | 0
U25C A56G U78A | 0.04

Variant | self-cleavage
U25C A57G U78G | 0.11
U25A A45G G55C | 0.09
U25C A28G U43C U54A U58C | 0.05
U25C A28C U74C | 0.13
G24A G42A U43C A57G C79U | 0.15
U25A A28G A56G A64G | 0.23
G24C C34U U41C U51C | 0.35
U25C A28G C38U U54C U69G A77G U80C | 0.03
U25A A47U G63A U66C U78C | 0.08
G24C A65U U67G U76C | 0.14
U25C A35G U60A | 0.11
U25C A47U U51A A77G | 0.14
U25C A45G U51C | 0.35
G24A U48C A56U | 0.14
U25A A45U A56U U69C | 0.06
G24U U67A G70A U80C | 0.17
G24A U25C A35U A56G | 0.07
U25C A35U U60C U72C | 0.41
U25C A35U U51C A65U U69C | 0.07
U25A U66C U67C | 0.46
U25C A28G U72C A77C | 0.09
U25A G46A U51C U54A A56U U58A A65U | 0.04
G24A G30A A45G U51C A75G | 0.31
G24U U49C U54G U60A C81A | 0.06

Variant | self-cleavage
G24A U41C A45G | 0.07
G24A U41A U58C U66C | 0.05
G24A G30U U58C | 0.07
U25A U31C U58A | 0.06
G24A C50U U69C | 0.24
U25A U43A A64G U78C | 0.15
U25A C39G A77G | 0.07
U25C A57G U80C | 0.45
U25A A35G U80C | 0.38
U25C A45G U58C | 0.29
U25C A57G U72C | 0.24
G24A U25A C27U U48C | 0.12
U25A C37U C40A U49A U67G | 0.1
U25C A56U A64U | 0.12
U25C A35C A56G | 0.26
U25C A65G U80C | 0.36
U25C A28G U60C | 0.27
U25C A28G A56U U69C | 0.2
U25C A28C U48C | 0.28
U25C A35G U54C | 0.1
U25A A35U U72A U78C | 0.07
U25A U26A A35U U78C | 0.03
U25A A45U U80A | 0.37
U25C A28U G30A U60C U69A U78A | 0.08

Variant | self-cleavage
U25A U43C U74A | 0.09
U25A U49A U78C | 0.04
U25A A45G U69A | 0.11
G24A U67C U69A U80C | 0.05
U25A U31C U43A | 0.28
U25A G30A U49A | 0.24
U25A G33C A57G U67A U80C | 0.05
U25C A35U A64G U76C | 0.15
U25C C27G A64G U78C | 0.16
U25A A28G A45U U49C U51C U54C U74C | 0.12
G24A U54G A56U | 0.18
U25C A28G A77G | 0.27
U25C A47C U60A U69A | 0.16
U25A A45C A56G | 0.23
U25A U78C U80A | 0.21
U25A C44A U74C | 0.39
U25C A45G U48C U69C | 0.17
G24A U41C U69C | 0.13
G24A U41C A56G U66A U76A U78C | 0.08
G24C U31C U41A A47G U74C U78C | 0.09
U25A U60A U74A U80C C81U | 0.12
U25C A65G U76C | 0.55
U25C A56C A57G U58C A64G | 0.11
G24A U26C A28G U60A | 0.08

Variant | self-cleavage
U25C A47G G61C A77U | 0.23
U25C A35U C40U U69A | 0.15
U25C A45G U49A C81U | 0.01
U25C A28U A45C A65G | 0.17
G24A U54C U69A | 0.17
G24C U25C U41C U80A | 0.21
U25C A45G U66C U72C | 0.4
U25A U43A A64U U78G | 0.08
U25C A35G U67C U69A | 0.05
U25A U49A C62U U69C | 0.13
U25A G52A U54C C79A | 0.22
U25A U43C A45G U60G | 0.1
U25A U41C U51A G70A | 0.29
U25C A28U C32A | 0.21
G24U A57G U69C | 0.13
U25C A47G U67C U72C | 0.13
U25C A28G A65U U72A | 0.12
G24C U31C A65G U80C | 0.31
U25C A45U U67C | 0.3
U25A U51C U67C | 0.14
U25A U69C A75G U76C | 0.15
U25A A35G A45G | 0.15
G24U U25A U43C U54C | 0.07
G24C A45G U58G U67C | 0.17

Variant | self-cleavage
G24A C27A U31G | 0.2
U25C A35G C39U U43C U49C U78C | 0.09
G24A U51A U67C U80C | 0.13
U25C A28U U48A | 0.13
U25A A28U C59A G70U | 0.15
U25C A35U A47G U74A | 0.28
U25C A35G C37U U60C | 0.18
G24A C29U G33A A77G | 0.07
G24C A28G U54C A56U | 0.07
U25A U26C G30U A56G | 0.17
U25A U60C U76C | 0.21
U25C A65U C81A | 0.16
U25C A28U U43C U72A | 0.08
U25C A28U A35G U49A U60A | 0.12
U25C A35U C38A U60A U66C | 0.1
G24A A64G U78C | 0.08
U25C A28G G42U | 0.12
G24A C40U U48C G63U U72C | 0.19
G24U U51C U78C | 0.17
G24A U49C A65U | 0.13
U25A U31C C40U G42U G61A | 0.08
U25A A28U A57G U60A G63A | 0.29
U25A U26C U43A U58C | 0.12
